Measured values as given in US20240269278A1, “ANTI-CD47 ANTIBODY FOR COMBINED TREATMENT OF BLOOD TUMOR” (Nanjing Shunxin Pharmaceuticals Co., Ltd. of Chiatai …, priority 2021, published 2024).

Assays:
HL60 cells = assay: Promotion of macrophage phagocytosis of tumor cells (flow cytometry); assay type: cell-based, human; details: CFSE-labeled HL60 cells, human macrophages
Method: The ability of the anti-CD47 antibodies to promote the phagocytosis of tumor cells by macrophages having SIRPα on the cell surface was determined based on flow cytometry.
Monocytes were isolated from human peripheral blood mononuclear cells (PBMC, Sailybio, Cat. No. 190056) using a monocyte isolation kit ([…], Cat. No. 19058), plated into a 24-well plate (Greiner bio-one, Cat. No. 662-160) at […] cells per well, and induced under 100 ng/mL stimulating factor M-CSF (R&D Systems, Cat. No. 216-MC-010) for 7 days to form macrophages. 1×10^6 target cells HL60 (Shanghai Institute of Biochemistry and Cell Biology, Chinese Academy of Sciences, Cat. No. TCHu23) were suspended in […] CFSE (BD Biosciences, Cat. No. 565082) fluorescent dye (diluted with a PBS buffer to the desired concentration), incubated in a water bath at 37° C. in the dark for 15 min, and washed with a PBS buffer to prepare CFSE-labeled HL60 cells, which were then incubated with each of 10 μg/mL and 1 μg/mL anti-CD47 antibodies (see Table 3 for chimenic antibodies, and see Table 4 for humanized antibodies) in an incubator at 37° C. with 5% CO2 for 1-2 h. The HL60 cells after the incubation were washed three times with a PBS buffer and added to the macrophages. The cells were incubated in an incubator at 37° C. with 5% CO2 for 2-4 h. After the cells were washed three times with a PBS buffer, a mixture of 1260 μL of PBS, 20 μL of anti-APC-CD14 (APC MouseAnti-Human CD14, BD Biosciences, Cat. No. 555399), and 20 μL of PE-CD11b (PE Mouse Anti-Human CD11b/1Mac-1, BD Biosciences, Cat. No. 555388) antibody was added to each well. The cells were incubated at 4° C. in the dark for 30 min, washed three times with a PBS buffer, and digested with trypsin (Gibco, Cat. No. 12604-013). The rate of phagocytosis (%) by the macrophages was determined using a flow cytometer (BD Biosciences, model: C6).

[1] = Thermostability assay based on Nano DSF (Prometheus NT.48); assay type: physicochemical
Method: The high-throughput protein stability analyzer Prometheus NT.48 is an instrument for acquiring various types of data such as protein molecular structure stability, aggregation stability, and colloid dispersion stability. The melting temperatures (Tm) and the aggregation temperatures (Tagg) of the anti-CD47 chimeric antibodies and the anti-CD47 humanized antibodies were determined using this instrument.

Molecule	rate of phagocytosis (HL60 cells; 1 μg/mL antibody) [%]	rate of phagocytosis (HL60 cells; 10 μg/mL antibody) [%]	Tagg (aggregation temperature) [1] [°C]	Tm (melting temperature) [1] [°C]
hz16E5-1.2: humanized anti-CD47 antibody, heavy chain SEQ ID NO: 165, light chain SEQ ID NO: 167 (antibody, heavy chain; light chain) heavy: QVQLVQSGAEVKKPGASVKVSCKASGYTFTNYGMNWVRQAPGQGLKWMGWINTNTGEPTYAQELQGRVTMTLDTSTRTAYMELRSLRSDDTAVYYCARFSHLRGPMDYWGQGTLVTVSSASTKGPSVFPLAPCSRSTSESTAALGCLVKDYFPEPVTVSWNSGALTSGVHTFPAVLQSSGLYSLSSVVTVPSSSLGTKTYTCNVDHKPSNTKVDKRV[omitted - human IgG4 Fc with S228P (EU numbers)] light: DIQMTQSPSSLSASVGDRVTITCRSSQSLVHSNGYTYLHWYQQKPGKAPKLLIYKVSNRFSGVPSRFSGSGSGTDFTLTISSLQPEDFATYYCSQSTHVPPTFGQGTKLEIKRTVAAPSVFIFPPSDEQLKSGTASVVCLLNNFYPREAKVQWKVDNALQSGNSQESVTEQDSKDSTYSLSSTLTLSKADYEKHKVYACEVTHQGLSSPVTKSFNRGEC	5.1	17.83	61.90	69.54
hz16E5-3.2: humanized anti-CD47 antibody, heavy chain SEQ ID NO: 169, light chain SEQ ID NO: 171 (antibody, heavy chain; light chain) heavy: QVQLVQSGAEVKKPGASVKVSCKASGYTFTNYGMNWVRQAPGQGLKWMGWINTNTGEPTYAQELQGRVTMTLDTSTRTAYMELRSLRSDDTAVYYCARFSHLRGPMDYWGQGTLVTVSSASTKGPSVFPLAPCSRSTSESTAALGCLVKDYFPEPVTVSWNSGALTSGVHTFPAVLQSSGLYSLSSVVTVPSSSLGTKTYTCNVDHKPSNTKVDKRV[omitted - human IgG4 Fc with S228P (EU numbers)] light: DAQMTQSPSSLSASVGDRVTITCRSSQSLVHSNGYTYLHWYQQKPGKAPKLLIYKVSNRFSGVPSRFSGSGSGTDFTLTISSLQPEDFATYYCSQSTHVPPTFGQGTKLEIKRTVAAPSVFIFPPSDEQLKSGTASVVCLLNNFYPREAKVQWKVDNALQSGNSQESVTEQDSKDSTYSLSSTLTLSKADYEKHKVYACEVTHQGLSSPVTKSFNRGEC	3.02	2.03	61.44	69.10
hz16E5-3.3: humanized anti-CD47 antibody, heavy chain SEQ ID NO: 177, light chain SEQ ID NO: 179 (antibody, heavy chain; light chain) heavy: QVQLVQSGAEVKKPGASVKVSCKASGYTFTNYGMNWVRQAPGQGLKWMGWINTNTGEPTYAQELQGRVTMTLDTSTRTAYMELRSLRSDDTAVYYCTRFSHLRGPMDYWGQGTLVTVSSASTKGPSVFPLAPCSRSTSESTAALGCLVKDYFPEPVTVSWNSGALTSGVHTFPAVLQSSGLYSLSSVVTVPSSSLGTKTYTCNVDHKPSNTKVDKRV[omitted - human IgG4 Fc with S228P (EU numbers)] light: DAQMTQSPSSLSASVGDRVTITCRSSQSLVHSNGYTYLHWYQQKPGKAPKLLIYKVSNRFSGVPSRFSGSGSGTDFTLTISSLQPEDFATYYCSQSTHVPPTFGQGTKLEIKRTVAAPSVFIFPPSDEQLKSGTASVVCLLNNFYPREAKVQWKVDNALQSGNSQESVTEQDSKDSTYSLSSTLTLSKADYEKHKVYACEVTHQGLSSPVTKSFNRGEC	11.62	4.7	73.81	68.72
hz16E5-1.3: humanized anti-CD47 antibody, heavy chain SEQ ID NO: 161, light chain SEQ ID NO: 163 (antibody, heavy chain; light chain) heavy: QVQLVQSGAEVKKPGASVKVSCKASGYTFTNYGMNWVRQAPGQGLKWMGWINTNTGEPTYAQELQGRVTMTLDTSTRTAYMELRSLRSDDTAVYYCTRFSHLRGPMDYWGQGTLVTVSSASTKGPSVFPLAPCSRSTSESTAALGCLVKDYFPEPVTVSWNSGALTSGVHTFPAVLQSSGLYSLSSVVTVPSSSLGTKTYTCNVDHKPSNTKVDKRV[omitted - human IgG4 Fc with S228P (EU numbers)] light: DIQMTQSPSSLSASVGDRVTITCRSSQSLVHSNGYTYLHWYQQKPGKAPKLLIYKVSNRFSGVPSRFSGSGSGTDFTLTISSLQPEDFATYYCSQSTHVPPTFGQGTKLEIKRTVAAPSVFIFPPSDEQLKSGTASVVCLLNNFYPREAKVQWKVDNALQSGNSQESVTEQDSKDSTYSLSSTLTLSKADYEKHKVYACEVTHQGLSSPVTKSFNRGEC	3.03	4.33	73.77	68.90
hz3F10-4.1: humanized anti-CD47 antibody, heavy chain SEQ ID NO: 121, light chain SEQ ID NO: 123 (antibody, heavy chain; light chain) heavy: QVQLVQSGAEVKKPGSSVKVSCKASGYTFSRYWIEWVRQAPGQGLEWMGEFIPGSDTTNYAQKFQGRVTITADISTSTAYMELSSLRSEDTAVYYCARGGLRRMDYWGQGTLVTVSSASTKGPSVFPLAPCSRSTSESTAALGCLVKDYFPEPVTVSWNSGALTSGVHTFPAVLQSSGLYSLSSVVTVPSSSLGTKTYTCNVDHKPSNTKVDKRV[omitted - human IgG4 Fc with S228P (EU numbers)] light: DIQMTQSPSSLSASVGDRVTITCRASSSVSSTYLHWYQQKPGKAPKLLIYTTSTLASGVPSRFSGSGSGTSYTLTISSLQPEDFATYYCQQFSESTWTFGQGTKLEIKRTVAAPSVFIFPPSDEQLKSGTASVVCLLNNFYPREAKVQWKVDNALQSGNSQESVTEQDSKDSTYSLSSTLTLSKADYEKHKVYACEVTHQGLSSPVTKSFNRGEC	50.26	58.26	62.54	68.35
hz3F10-1.2: humanized anti-CD47 antibody, heavy chain SEQ ID NO: 133, light chain SEQ ID NO: 135 (antibody, heavy chain; light chain) heavy: QVQLVQSGAEVKKPGSSVKVSCKASGYTFSRYWIEWVRQAPGQGLEWMGEFIPGSDTTNYAQKFQGRVTITAEISTNTAYMELSSLRSEDTAVYYCARGGLRRMDYWGQGTLVTVSSASTKGPSVFPLAPCSRSTSESTAALGCLVKDYFPEPVTVSWNSGALTSGVHTFPAVLQSSGLYSLSSVVTVPSSSLGTKTYTCNVDHKPSNTKVDKRV[omitted - human IgG4 Fc with S228P (EU numbers)] light: DIQMTQSPSSLSASVGDRVTITCRASSSVSSTYLHWYQQKPGKAPKLLIYTTSTLASGVPSRFSGSGSGTDFTLTISSLQPEDFATYYCQQFSDSTWTFGQGTKLEIKRTVAAPSVFIFPPSDEQLKSGTASVVCLLNNFYPREAKVQWKVDNALQSGNSQESVTEQDSKDSTYSLSSTLTLSKADYEKHKVYACEVTHQGLSSPVTKSFNRGEC	55.52	38.86	61.92	68.71
hz3F10-5.1: humanized anti-CD47 antibody, heavy chain SEQ ID NO: 125, light chain SEQ ID NO: 127 (antibody, heavy chain; light chain) heavy: QVQLVQSGAEVKKPGSSVKVSCKASGYTFSRYWIEWVRQAPGQGLEWMGEFIPGSDTTNYAQKFQGRVTITADISTSTAYMELSSLRSEDTAVYYCARGGLRRMDYWGQGTLVTVSSASTKGPSVFPLAPCSRSTSESTAALGCLVKDYFPEPVTVSWNSGALTSGVHTFPAVLQSSGLYSLSSVVTVPSSSLGTKTYTCNVDHKPSNTKVDKRV[omitted - human IgG4 Fc with S228P (EU numbers)] light: DIQMTQSPSSLSASVGDRVTITCRASSSVSSTYLHWYQQKPGKAPKLWIYTTSTLASGVPSRFSGSGSGTSYTLTISSLQPEDFATYYCQQFSDSTWTFGQGTKLEIKRTVAAPSVFIFPPSDEQLKSGTASVVCLLNNFYPREAKVQWKVDNALQSGNSQESVTEQDSKDSTYSLSSTLTLSKADYEKHKVYACEVTHQGLSSPVTKSFNRGEC	50.45	58.46	62.12	68.05
